In PubChem BioAssay AID1460 (National Center for Advancing Translational Sciences (NCATS), 2008):
The whole screen tested about 270,000 compounds, of which about 5,800 (2.1%) were called active. Inconclusive means that the source gave no clear call. Such entries were picked first, then a sample of the others. The call rests on the fitted dose curve; in most records, active means well fitted inhibition curve with a large enough effect; inconclusive means small, poorly fitted or top-dose-only effect; inactive means flat fitted curve, though single readings scatter. A potency beside an inconclusive call is a rough fit, not a confirmed value.

biological target: Microtubule-associated protein tau (Homo sapiens) (UniProt P10636); assay: qHTS for Inhibitors of Tau Fibril Formation, Thioflavin T Binding; details: recombinant tau K18 P301L, heparin-induced fibrillization, ThT fluorescence; series mostly up to 57.4 µM; activity, negative = inhibition: at the top concentration; further: nearly all actives have a fitted effect of over 55% in size
Procedure, shortened: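 Fibril formation assay: tau K18 P301L at 15 uM with trace Alexa 594 label, heparin inducer 20 uM, pH 7 sodium acetate buffer, 37 C for 6 hr; endpoint ThT signal.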
On the % scale 0 is the no-effect control and ±100 the full control effect; potency means the concentration at half of the fitted maximal effect; tags describe the fitted curve by direction and shape.

Sequence of UniProt P10636 (P10636 whole entry, looked up): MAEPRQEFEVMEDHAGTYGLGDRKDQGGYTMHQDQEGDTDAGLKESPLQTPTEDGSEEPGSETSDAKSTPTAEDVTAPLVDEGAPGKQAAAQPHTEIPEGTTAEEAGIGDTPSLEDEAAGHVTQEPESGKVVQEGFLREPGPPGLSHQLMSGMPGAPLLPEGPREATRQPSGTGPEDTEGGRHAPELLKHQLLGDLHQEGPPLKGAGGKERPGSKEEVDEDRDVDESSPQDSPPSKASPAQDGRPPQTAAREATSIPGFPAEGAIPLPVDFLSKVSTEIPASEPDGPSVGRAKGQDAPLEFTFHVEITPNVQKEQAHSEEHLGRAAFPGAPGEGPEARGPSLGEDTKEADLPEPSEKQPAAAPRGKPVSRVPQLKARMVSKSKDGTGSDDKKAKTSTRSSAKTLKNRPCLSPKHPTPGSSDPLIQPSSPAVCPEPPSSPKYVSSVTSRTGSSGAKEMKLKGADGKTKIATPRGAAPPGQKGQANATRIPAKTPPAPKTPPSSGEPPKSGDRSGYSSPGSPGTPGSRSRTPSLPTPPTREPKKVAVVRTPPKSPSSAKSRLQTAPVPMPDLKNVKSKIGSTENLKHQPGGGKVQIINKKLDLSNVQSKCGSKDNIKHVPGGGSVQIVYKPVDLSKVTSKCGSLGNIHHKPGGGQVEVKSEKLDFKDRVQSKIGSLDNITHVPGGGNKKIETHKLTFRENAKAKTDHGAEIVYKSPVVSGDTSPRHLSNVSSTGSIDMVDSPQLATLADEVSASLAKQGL

SMILES	activity, negative = inhibition	Potency
O=C(Nc1nccs1)c1ccc(S(=O)(=O)NCC2CCCCC2)cc1	inactive: -23.7%	–
CCOC(=S)NC(=O)c1sc2ccccc2c1Cl	–	inconclusive: 25.1 µM [inhibitor, partial curve]
CCCCCc1ccc(-c2ccc(=O)[nH]n2)cc1	–	inconclusive: 39.8 µM [inhibitor, single point]
COc1ccccc1NC(=O)c1sc2nc(-c3ccco3)ccc2c1N	–	inconclusive: 2.51 µM [inhibitor, partial curve]
Cc1cc(C)nc(SC2=CS(=O)(=O)c3ccccc32)n1	–	inconclusive: 12.6 µM [inhibitor, partial curve]
CCOC(=O)c1c(/N=C/C2=C(O)CC(C)(C)CC2=O)sc2c1CCCC2	–	inconclusive: 0.158 µM [inhibitor, full curve, poor fit]
CCCCn1c(SCC(=O)Nc2cccc(OC)c2)nc2ccc(N3CCOCC3)cc2c1=O	–	inconclusive: 15.8 µM [inhibitor, partial curve]
CCc1ccccc1NC(=O)c1nn(-c2ccc(C)cc2)c(=O)c2c1c1ccccc1n2C	inactive: 1.5%	–
COc1cccc(Nc2nc(-c3cccc(N4C(=O)c5ccccc5C4=O)c3)cs2)c1	–	inconclusive: 10 µM [inhibitor, partial curve]
O=C(O)c1ccc(-c2ccc(/C=C3\NC(=O)N(Cc4ccc(Cl)cc4)C3=O)o2)cc1Cl	–	active: 28.2 µM
Nc1nc2c([nH]c(=O)n2C2OC(CO)C(O)C2O)c(=O)[nH]1 (stereo not drawn)	inactive: -1.98%	–
CC(C(=O)NC1CCCc2ccccc21)N1CCN(c2ccc(F)cc2)CC1 (stereo not drawn)	inactive: -11.2%	–
O=C(CSc1nc(-c2ccco2)cc(C(F)(F)F)n1)Nc1ccc(C(=O)N2CCCCC2)cc1	inactive: -1.33%	–
CC(C)NC(=O)c1cc(=O)n(C)c(=O)n1C	–	inconclusive: 5.62 µM [inhibitor, partial curve]
Cc1ccc(NC(=O)CN2C(=O)C(c3ccc(C)cc3)=NC23CCCCCC3)cc1	inactive: -2.24%	–
Cc1nnc(NC(=O)CSc2nnc(CNC(=O)C34CC5CC(CC(C5)C3)C4)n2C2CCCCC2)s1	–	inconclusive: 22.4 µM [inhibitor, single point]
CC(=O)Nc1ccc(S(=O)(=O)N2CCN(c3nc(NC4CCCC4)c4ccccc4n3)CC2)cc1	inactive: -16.6%	–
COc1ccc(-n2c(NC(=O)c3ccco3)c(C#N)c3nc4ccccc4nc32)cc1	inactive: 4.46%	–
CC(C)c1ccc(OCC(=O)Nc2cc(-c3ccccc3)no2)cc1	–	inconclusive: 0.282 µM [inhibitor, full curve, poor fit]
O=C(C[N+]1(CC#Cc2ccccc2)CCCCC1)c1ccccc1	inactive: -8.52%	–
COc1ccc(Nc2nc(-c3sc(NC(C)=O)nc3C)cs2)cc1	–	active: 12.6 µM
Cc1cc(C)cc(NC(=O)Cn2nc(N3CCN(c4ccccc4)CC3)ccc2=O)c1	inactive: -11.4%	–
Brc1cccc(-c2n[nH]c(-c3ccccc3)n2)c1	inactive: 14.5%	–
COC(=O)CCC(=O)OC1(C)C(=O)C=C2C=C(c3ccsc3)OC=C2C1=O (stereo not drawn)	inactive: -3.23%	–

SMILES	activity, negative = inhibition	Potency
Cc1nc(CCNC(=O)CC2C(=O)NCCN2Cc2ccc(F)cc2)sc1C (stereo not drawn)	inactive: -18%	–
CCN(CC)c1ccc(C(=O)Nc2ccccc2)cc1[N+](=O)[O-]	–	active: 15.8 µM
COc1ccc(CNC(=O)Cn2ncc3c(=O)oc4ccccc4c32)c(OC)c1	–	inconclusive: 0.251 µM [inhibitor, single point]
O=C(COC(=O)CCc1nc2ccccc2n1-c1ccccc1)Nc1ccc(N2CCCCC2)cc1	–	inconclusive: 3.55 µM [inhibitor, full curve, poor fit]
CCOC(=O)c1sc(Nc2nc3c(OC)cccc3s2)nc1C	–	inconclusive: 2.82 µM [inhibitor, full curve]
CCOc1ccc(CN(C)CCc2ccccn2)cc1	inactive: -4.23%	–
NC(=S)N/N=C/c1ccc(-c2cc(Cl)ccc2Cl)o1	–	inconclusive: 17.8 µM [inhibitor, partial curve]
CCOC(=O)c1ccc(N=c2scc(C)n2CC)cc1	–	inconclusive: 28.2 µM [inhibitor, single point]
CN(C)c1ccc(C(=O)OCc2ccc(Br)cc2)cc1	–	inconclusive: 7.08 µM [inhibitor, partial curve]
Cc1cc(O)ccc1N=Cc1c(C(F)(F)F)[nH][nH]c1=O	–	active: 25.1 µM
COc1ccc(NC(=O)c2ccccc2-c2ccccc2)cc1	inactive: 1.99%	–
COCCCN=C1NN=C(c2cc(C)n(Cc3ccccc3Cl)c2C)CS1	–	inconclusive: 39.8 µM [inhibitor, single point]
CCN(CC)C(=O)CSC(Nc1cccc(F)c1)=C(C#N)C#N	–	active: 28.2 µM
CCn1ncc(/C=N\NC(=O)c2ccc3c(c2)c(C)c(C)n3Cc2ccccc2)c1C	–	inconclusive: 28.2 µM [inhibitor, partial curve]
O=[N+]([O-])c1cccc(S(=O)(=O)Nc2nc3ccccc3nc2Nc2cccc(S(=O)(=O)N3CCCCC3)c2)c1	–	active: 15.8 µM
c1ccc(-c2nc3c(ccc4ccccc43)[nH]2)nc1	–	inconclusive: 11.2 µM [inhibitor, partial curve]
O=C(CSc1nnc2[nH]c(=O)cc(-c3ccccc3)n12)Nc1ccc(OC(F)(F)F)cc1	–	inconclusive: 2.24 µM [inhibitor, full curve]
Cc1cccc(/C(N)=N/OC(=O)c2ccc(F)cc2)c1	inactive: -2.81%	–
S=c1[nH]nc(-c2cccnc2)n1/N=C/C=C/c1ccccc1	inactive: -7.26%	–
CCOc1ccc(NC(=O)c2ccc(CSc3nnc(C)s3)cc2)cc1	–	inconclusive: 1.26 µM [inhibitor, full curve]
CC1c2ccccc2CN1CC1=NCCN1 (stereo not drawn)	–	inconclusive: 31.6 µM [inhibitor, single point]
Cc1ccc(C(=O)/C=C\NCc2ccccc2)cc1	–	inconclusive: 31.6 µM [inhibitor, single point]
COc1ccc(-c2cn3c(n2)sc2cc(C(=O)NC(C)C45CC6CC(CC(C6)C4)C5)ccc23)cc1 (stereo not drawn)	–	inconclusive: 28.2 µM [inhibitor, single point]
O=C(N/N=C/C=C/c1ccco1)/C(=C/c1ccccc1)NC(=O)c1ccccc1	–	inconclusive: 31.6 µM [inhibitor, single point]
